# Test results as given in the supplement of paper PMC8728848.
# Some of the results follow.
# B1: HPL (Tachypleus tridentatus) (protein)
# chain: MEDDCTCVTDRSLEGKLMKHPSTPAVYQILDGCRRLVPNPPTYNNIYKNWECIQSNILEKLLCKCDSLSNGAELIKGSGDTVYLLSNGVKRPIADPETFNGFCFDWNKIKTYSDIVINSLSTGPIIIIKHHHHHH
# Assays:
# Test in all cases: glycan array binding signal (z-score within array); higher = stronger binding
# Settings in all cases: glycan notation: IUPAC condensed, linker removed
# [1] = target: Fuc(a1-2)[Gal(a1-3)]Gal(b1-4)GlcNAc(b1-2)Man(a1-3)[Fuc(a1-2)[Gal(a1-3)]Gal(b1-4)GlcNAc(b1-2)Man(a1-6)]Man(b1-4)GlcNAc(b1-4)[Fuc(a1-6)]GlcNAc
# Outline: (§1)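 The Consortium for Functional Glycomics database supplied 3228 glycan arrays, of which those lacking an available protein sequence were dropped. The binding signal, a within-array Z-score, was averaged across arrays of the same protein sequence and across linkers. Negative scores can be read as non-binding.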
# [2] = target: Fuc(a1-2)[Gal(a1-3)]Gal(b1-4)GlcNAc(b1-3)GalNAc
# Outline: as §1
# [3] = target: Fuc(a1-2)[Gal(a1-3)]Gal(b1-4)GlcNAc(b1-3)[Fuc(a1-2)[Gal(a1-3)]Gal(b1-4)GlcNAc(b1-6)]GalNAc
# Outline: as §1
# [4] = target: Fuc(a1-2)[Gal(a1-3)]Gal(b1-4)GlcNAc(b1-6)GalNAc
# Outline: as §1
# [5] = target: Fuc(a1-2)[Gal(a1-3)]Gal(b1-4)[Fuc(a1-3)]Glc
# Outline: as §1
# [6] = target: Fuc(a1-2)[Gal(a1-3)]Gal(b1-4)[Fuc(a1-3)]GlcNAc
# Outline: as §1
# [7] = target: Fuc(a1-2)[Gal(a1-3)]Gal(b1-4)[Fuc(a1-3)]GlcNAc(b1-3)GalNAc
# Outline: as §1
# [8] = target: Fuc(a1-2)[Gal(a1-4)]Gal(b1-4)GlcNAc
# Outline: as §1
# [9] = target: Fuc(a1-2)[GalNAc(a1-3)]Gal
# Outline: as §1
# [10] = target: Fuc(a1-2)[GalNAc(a1-3)]Gal(b1-3)GalNAc(a1-3)[Fuc(a1-2)]Gal(b1-4)GlcNAc
# Outline: as §1
# [11] = target: Fuc(a1-2)[GalNAc(a1-3)]Gal(b1-3)GalNAc(b1-3)Gal(a1-4)Gal(b1-4)Glc
# Outline: as §1
# [12] = target: Fuc(a1-2)[GalNAc(a1-3)]Gal(b1-3)GlcNAc
# Outline: as §1
# [13] = target: Fuc(a1-2)[GalNAc(a1-3)]Gal(b1-3)GlcNAc(b1-2)Man(a1-3)[Fuc(a1-2)[GalNAc(a1-3)]Gal(b1-3)GlcNAc(b1-2)Man(a1-6)]Man(b1-4)GlcNAc(b1-4)GlcNAc
# Outline: as §1
# [14] = target: Fuc(a1-2)[GalNAc(a1-3)]Gal(b1-3)GlcNAc(b1-2)Man(a1-3)[Fuc(a1-2)[GalNAc(a1-3)]Gal(b1-3)GlcNAc(b1-2)Man(a1-6)]Man(b1-4)GlcNAc(b1-4)[Fuc(a1-6)]GlcNAc
# Outline: as §1
# [15] = target: Fuc(a1-2)[GalNAc(a1-3)]Gal(b1-3)GlcNAc(b1-3)GalNAc
# Outline: as §1
# [16] = target: Fuc(a1-2)[GalNAc(a1-3)]Gal(b1-3)GlcNAc(b1-6)GalNAc
# Outline: as §1
# [17] = target: Fuc(a1-2)[GalNAc(a1-3)]Gal(b1-4)Glc
# Outline: as §1
# [18] = target: Fuc(a1-2)[GalNAc(a1-3)]Gal(b1-4)GlcNAc
# Outline: as §1
# [19] = target: Fuc(a1-2)[GalNAc(a1-3)]Gal(b1-4)GlcNAc(b1-2)Man
# Outline: as §1
# [20] = target: Fuc(a1-2)[GalNAc(a1-3)]Gal(b1-4)GlcNAc(b1-2)Man(a1-3)[Fuc(a1-2)[GalNAc(a1-3)]Gal(b1-4)GlcNAc(b1-2)Man(a1-6)]Man(b1-4)GlcNAc(b1-4)GlcNAc
# Outline: as §1
# [21] = target: Fuc(a1-2)[GalNAc(a1-3)]Gal(b1-4)GlcNAc(b1-2)Man(a1-3)[Fuc(a1-2)[GalNAc(a1-3)]Gal(b1-4)GlcNAc(b1-2)Man(a1-6)]Man(b1-4)GlcNAc(b1-4)[Fuc(a1-6)]GlcNAc
# Outline: as §1
# [22] = target: Fuc(a1-2)[GalNAc(a1-3)]Gal(b1-4)GlcNAc(b1-3)Gal(b1-4)GlcNAc
# Outline: as §1
# [23] = target: Fuc(a1-2)[GalNAc(a1-3)]Gal(b1-4)GlcNAc(b1-3)Gal(b1-4)GlcNAc(b1-3)Gal(b1-4)GlcNAc
# Outline: as §1
# [24] = target: Fuc(a1-2)[GalNAc(a1-3)]Gal(b1-4)GlcNAc(b1-3)GalNAc
# Outline: as §1
# [25] = target: Fuc(a1-2)[GalNAc(a1-3)]Gal(b1-4)GlcNAc(b1-3)[Fuc(a1-2)[GalNAc(a1-3)]Gal(b1-4)GlcNAc(b1-6)]GalNAc
# Outline: as §1
# [26] = target: Fuc(a1-2)[GalNAc(a1-3)]Gal(b1-4)GlcNAc(b1-6)GalNAc
# Outline: as §1
# [27] = target: Fuc(a1-2)[GalNAc(a1-3)]Gal(b1-4)[Fuc(a1-3)]GlcNAc
# Outline: as §1
# [28] = target: Fuc(a1-2)[GalNAc(a1-3)]Gal(b1-4)[Fuc(a1-3)]GlcNAc(b1-3)GalNAc
# Outline: as §1
# [29] = target: Fuc(a1-2)[GalNAc(a1-4)]Gal(b1-4)GlcNAc
# Outline: as §1
# [30] = target: Fuc(a1-2)[GalNAc(b1-3)]Gal
# Outline: as §1
# [31] = target: Fuc(a1-3)GlcNAc
# Outline: as §1
# [32] = target: Fuc(a1-3)[Gal(b1-4)]Glc6S
# Outline: as §1
# [33] = target: Fuc(a1-3)[Gal(b1-4)]GlcNAc
# Outline: as §1
# [34] = target: Fuc(a1-3)[Gal(b1-4)]GlcNAc(b1-2)Man
# Outline: as §1
# [35] = target: Fuc(a1-3)[Gal(b1-4)]GlcNAc(b1-2)Man(a1-3)[Fuc(a1-3)[Gal(b1-4)]GlcNAc(b1-2)Man(a1-6)]Man(b1-4)GlcNAc(b1-4)GlcNAc
# Outline: as §1
# [36] = target: Fuc(a1-3)[Gal(b1-4)]GlcNAc(b1-2)Man(a1-3)[Fuc(a1-3)[Gal(b1-4)]GlcNAc(b1-2)Man(a1-6)]Man(b1-4)GlcNAc(b1-4)[Fuc(a1-6)]GlcNAc
# Outline: as §1
# [37] = target: Fuc(a1-3)[Gal(b1-4)]GlcNAc(b1-3)Gal(b1-3)[Fuc(a1-4)]GlcNAc
# Outline: as §1
# [38] = target: Fuc(a1-3)[Gal(b1-4)]GlcNAc(b1-3)Gal(b1-4)[Fuc(a1-3)]GlcNAc
# Outline: as §1
# [39] = target: Fuc(a1-3)[Gal(b1-4)]GlcNAc(b1-3)Gal(b1-4)[Fuc(a1-3)]GlcNAc(b1-3)Gal(b1-4)[Fuc(a1-3)]GlcNAc
# Outline: as §1
# [40] = target: Fuc(a1-3)[Gal(b1-4)]GlcNAc(b1-3)GalNAc
# Outline: as §1
# [41] = target: Fuc(a1-3)[Gal(b1-4)]GlcNAc(b1-6)GalNAc
# Outline: as §1
# [42] = target: Fuc(a1-3)[Gal(b1-4)]GlcNAc(b1-6)[Gal(b1-3)GlcNAc(b1-3)]Gal(b1-4)Glc
# Outline: as §1
# [43] = target: Fuc(a1-3)[Gal(b1-4)]GlcNAc6S
# Outline: as §1
# [44] = target: Fuc(a1-3)[Gal3S(b1-4)]Glc
# Outline: as §1
# [45] = target: Fuc(a1-3)[Gal3S(b1-4)]GlcNAc
# Outline: as §1
binder,measurement,setting,value
B1,glycan array binding signal (z-score),[1],0.564
same,glycan array binding signal (z-score),[2],-0.308
same,glycan array binding signal (z-score),[3],-0.082
same,glycan array binding signal (z-score),[4],1.39
same,glycan array binding signal (z-score),[5],-0.275
same,glycan array binding signal (z-score),[6],-0.241
same,glycan array binding signal (z-score),[7],-0.12
same,glycan array binding signal (z-score),[8],-0.303
same,glycan array binding signal (z-score),[9],-0.411
same,glycan array binding signal (z-score),[10],-0.395
same,glycan array binding signal (z-score),[11],-0.096
same,glycan array binding signal (z-score),[12],-0.111
same,glycan array binding signal (z-score),[13],0.453
same,glycan array binding signal (z-score),[14],0.268
same,glycan array binding signal (z-score),[15],-0.144
same,glycan array binding signal (z-score),[16],-0.159
same,glycan array binding signal (z-score),[17],-0.297
same,glycan array binding signal (z-score),[18],-0.387
same,glycan array binding signal (z-score),[19],-0.273
same,glycan array binding signal (z-score),[20],-0.257
same,glycan array binding signal (z-score),[21],0.104
same,glycan array binding signal (z-score),[22],-0.321
same,glycan array binding signal (z-score),[23],0.144
same,glycan array binding signal (z-score),[24],-0.042
same,glycan array binding signal (z-score),[25],-0.168
same,glycan array binding signal (z-score),[26],-0.303
same,glycan array binding signal (z-score),[27],-0.19
same,glycan array binding signal (z-score),[28],0.139
same,glycan array binding signal (z-score),[29],-0.434
same,glycan array binding signal (z-score),[30],-0.447
same,glycan array binding signal (z-score),[31],-0.222
same,glycan array binding signal (z-score),[32],0.371
same,glycan array binding signal (z-score),[33],-0.275
same,glycan array binding signal (z-score),[34],0.561
same,glycan array binding signal (z-score),[35],0.36
same,glycan array binding signal (z-score),[36],0.24
same,glycan array binding signal (z-score),[37],0.049
same,glycan array binding signal (z-score),[38],0.239
same,glycan array binding signal (z-score),[39],-0.146
same,glycan array binding signal (z-score),[40],-0.296
same,glycan array binding signal (z-score),[41],0.111
same,glycan array binding signal (z-score),[42],-0.178
same,glycan array binding signal (z-score),[43],-0.504
same,glycan array binding signal (z-score),[44],0.161
same,glycan array binding signal (z-score),[45],-0.327
